Measured values: patent publication US20250049939A1, “NOVEL FLT3 ANTIBODIES AND ANTIBODY-DRUG-CONJUGATES BASED THEREON, THERAPEUTIC METHODS AND USES THEREOF IN COMBINATION WITH TYROSINE KINASE INHIBITORS” (TUBULIS GmbH, priority 2021, published 2025)

Assays:
murine FLT3 = biological target: T1, murine FLT3 (Mus musculus, UniProt Q00342); experiment: Cell surface binding to Ba/F3 mFLT3, flow cytometry; conditions: orthologue panel
T1 construct: host or cells: Ba/F3 cells, retrovirally transduced with MSCV-IRES-YFP (pMIY) vector
T1 sequence (Q00342 28-1000): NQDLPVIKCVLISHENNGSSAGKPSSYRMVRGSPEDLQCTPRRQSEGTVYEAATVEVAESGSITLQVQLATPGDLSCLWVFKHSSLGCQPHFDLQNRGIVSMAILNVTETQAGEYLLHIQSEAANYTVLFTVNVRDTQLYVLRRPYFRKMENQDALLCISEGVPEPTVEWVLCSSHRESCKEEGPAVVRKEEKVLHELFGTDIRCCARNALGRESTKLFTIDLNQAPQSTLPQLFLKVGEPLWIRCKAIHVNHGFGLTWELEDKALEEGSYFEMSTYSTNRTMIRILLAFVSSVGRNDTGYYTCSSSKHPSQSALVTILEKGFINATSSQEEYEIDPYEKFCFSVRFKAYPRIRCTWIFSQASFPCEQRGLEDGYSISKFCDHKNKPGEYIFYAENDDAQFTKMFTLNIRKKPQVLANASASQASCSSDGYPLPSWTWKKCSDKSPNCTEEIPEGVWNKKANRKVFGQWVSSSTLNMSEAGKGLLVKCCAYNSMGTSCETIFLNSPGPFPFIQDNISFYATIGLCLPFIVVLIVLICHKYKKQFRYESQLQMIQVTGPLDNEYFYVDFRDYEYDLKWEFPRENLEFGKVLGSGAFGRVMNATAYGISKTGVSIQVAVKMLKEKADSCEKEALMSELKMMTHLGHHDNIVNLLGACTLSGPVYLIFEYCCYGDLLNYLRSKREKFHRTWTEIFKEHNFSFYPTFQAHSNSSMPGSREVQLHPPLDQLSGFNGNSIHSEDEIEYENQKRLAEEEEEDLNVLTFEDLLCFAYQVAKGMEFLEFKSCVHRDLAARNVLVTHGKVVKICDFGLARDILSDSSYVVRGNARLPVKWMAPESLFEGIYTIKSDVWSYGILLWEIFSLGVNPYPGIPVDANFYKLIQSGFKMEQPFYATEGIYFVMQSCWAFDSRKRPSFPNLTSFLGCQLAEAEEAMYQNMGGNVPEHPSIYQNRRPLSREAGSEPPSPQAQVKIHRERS
Description: (§1) For antibody binding studies, cells were stained on ice with primary mouse, rat or human anti-FLT3 antibodies (in house) and secondary antibody Goat F(ab′)2 Anti-Human Ig-PE (2012-09), Goat Anti-Mouse IgG (H+L)-PE (1032-09) or Goat Anti-Rat IgG (H+L)-PE (3052-09) purchased from Southern Biotech. For internalization experiments, cells incubated with anti-FLT3 antibodies were washed and incubated for 30 min at 4° C. or 37° C. followed by staining with secondary antibody.
(§2) Murine FLT3 (OMu21985D, Genescript), human CD64 (RC207487), CD32 (RC205786) and CD16 (RC206429), were purchased from Origene. Cynomolgues monkey FLT3 gene was synthesized from XM_015439107.1 by Eurofins. The constructs were cloned into retroviral expression vector MSCV-IRES-YFP (pMIY) using the In-Fusion HD Cloning Plus Kit (Takara Bio, Saint-Germain-en-Laye, France). All FLT3 point mutations were generated using the QuikChange II XL Site-Directed Mutagenesis Kit (Agilent Technologies, Santa Clara, CA, USA) and correct sequence was confirmed by Sanger sequencing. […]
(§3) For FLT3 expression analysis, cells were stained on ice with primary mouse anti-FLT3-AF647 antibodies for 30 min. […] Binding and expression were subsequently measured at the flow cytometer (BD FACSCanto II) and the results were evaluated with FlowJo version 10.8.1.

[1] = biological target: T2, human wildtype FLT3 (hFLT3 wt) (Homo sapiens, UniProt P36888); experiment: Cell surface binding to Ba/F3 hFLT3 wt, flow cytometry; conditions: orthologue panel
T2 construct: expressed in transfected cells; host or cells: Ba/F3 cells, retrovirally transduced with MSCV-IRES-YFP (pMIY) vector
T2 sequence (P36888 27-993): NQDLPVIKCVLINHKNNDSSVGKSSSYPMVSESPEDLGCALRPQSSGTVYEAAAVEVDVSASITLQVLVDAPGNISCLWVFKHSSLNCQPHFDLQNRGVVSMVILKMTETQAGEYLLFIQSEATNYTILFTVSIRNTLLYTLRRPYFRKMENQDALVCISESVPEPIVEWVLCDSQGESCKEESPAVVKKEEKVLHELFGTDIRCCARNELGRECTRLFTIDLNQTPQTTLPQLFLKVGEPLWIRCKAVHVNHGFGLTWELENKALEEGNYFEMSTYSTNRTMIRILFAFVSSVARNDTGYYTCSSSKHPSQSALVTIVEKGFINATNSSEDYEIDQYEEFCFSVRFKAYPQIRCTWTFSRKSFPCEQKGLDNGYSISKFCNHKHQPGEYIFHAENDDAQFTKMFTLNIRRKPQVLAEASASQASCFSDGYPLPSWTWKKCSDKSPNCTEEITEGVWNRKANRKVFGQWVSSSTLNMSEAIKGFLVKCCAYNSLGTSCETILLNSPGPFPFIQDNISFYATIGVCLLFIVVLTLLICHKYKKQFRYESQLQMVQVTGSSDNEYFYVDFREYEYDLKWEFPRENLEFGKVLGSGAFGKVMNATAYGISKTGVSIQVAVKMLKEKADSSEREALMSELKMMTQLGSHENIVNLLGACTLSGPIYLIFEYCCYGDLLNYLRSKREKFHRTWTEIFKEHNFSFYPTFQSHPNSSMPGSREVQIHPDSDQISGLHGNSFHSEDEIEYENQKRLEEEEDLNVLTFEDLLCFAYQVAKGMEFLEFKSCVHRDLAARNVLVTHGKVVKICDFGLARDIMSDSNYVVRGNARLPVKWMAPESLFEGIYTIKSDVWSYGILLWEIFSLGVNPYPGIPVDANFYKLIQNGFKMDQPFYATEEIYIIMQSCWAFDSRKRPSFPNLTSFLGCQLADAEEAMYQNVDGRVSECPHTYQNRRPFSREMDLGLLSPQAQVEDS
Description: as §1
(§4) For FLT3 expression analysis, cells were stained on ice with primary mouse anti-FLT3-AF647 antibodies for 30 min. For antibody binding studies, cells were stained on ice with chimeric (20D9) or humanized anti-FLT3 antibodies (in house) or IgG1 control with or without Leu234Ala/Leu235Ala (LALA)-mutation in the Fc region and secondary antibody goat F(ab′)2 Anti-Human IgG-AF647 (2042-31) purchased from Southern Biotech for 30 min, respectively. Binding and expression were subsequently measured at the flow cytometer (BD FACSCanto II) and the results were evaluated with FlowJo version 10.8.1.

CSF1R = biological target: T3, CSF1R (Homo sapiens, UniProt P07333); experiment: Cell surface binding to Ba/F3 FLT3 homologue CSF1R; conditions: homologue panel
T3 construct: expressed in transfected cells; host or cells: Ba/F3 cells stably expressing pMIY construct
T3 sequence (P07333 20-972, species assumed): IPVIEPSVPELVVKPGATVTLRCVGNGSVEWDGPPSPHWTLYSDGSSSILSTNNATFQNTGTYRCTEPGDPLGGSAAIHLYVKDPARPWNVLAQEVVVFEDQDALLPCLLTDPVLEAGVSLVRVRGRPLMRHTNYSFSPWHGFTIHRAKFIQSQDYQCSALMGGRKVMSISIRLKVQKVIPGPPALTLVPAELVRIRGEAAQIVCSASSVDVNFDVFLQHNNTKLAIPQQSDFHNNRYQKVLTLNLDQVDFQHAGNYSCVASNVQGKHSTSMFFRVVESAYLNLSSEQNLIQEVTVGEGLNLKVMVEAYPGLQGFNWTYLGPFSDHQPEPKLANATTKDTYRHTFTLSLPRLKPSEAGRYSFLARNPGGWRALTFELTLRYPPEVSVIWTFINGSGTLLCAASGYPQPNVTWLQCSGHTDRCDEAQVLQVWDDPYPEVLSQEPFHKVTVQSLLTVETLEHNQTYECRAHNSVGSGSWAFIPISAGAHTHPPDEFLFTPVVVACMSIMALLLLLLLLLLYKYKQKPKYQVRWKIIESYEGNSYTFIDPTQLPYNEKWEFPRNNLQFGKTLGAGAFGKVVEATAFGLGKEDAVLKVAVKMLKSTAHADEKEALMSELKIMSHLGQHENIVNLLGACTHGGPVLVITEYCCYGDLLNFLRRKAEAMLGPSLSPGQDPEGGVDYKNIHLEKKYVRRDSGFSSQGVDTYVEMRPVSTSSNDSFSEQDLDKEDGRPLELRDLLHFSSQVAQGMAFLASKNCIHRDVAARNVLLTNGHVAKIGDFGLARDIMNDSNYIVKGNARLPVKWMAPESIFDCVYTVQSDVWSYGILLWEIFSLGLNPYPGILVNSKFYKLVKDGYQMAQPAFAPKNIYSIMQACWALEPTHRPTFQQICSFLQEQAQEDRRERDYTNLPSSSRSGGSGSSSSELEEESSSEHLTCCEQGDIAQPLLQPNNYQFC
Description: as §4

PDGFRα = biological target: T4, PDGFRα (Homo sapiens, UniProt P16234); experiment: Cell surface binding to Ba/F3 FLT3 homologue PDGFRα; conditions: homologue panel
T4 construct: expressed in transfected cells; host or cells: Ba/F3 cells stably expressing pMIY construct
T4 sequence (P16234 24-1089, species assumed): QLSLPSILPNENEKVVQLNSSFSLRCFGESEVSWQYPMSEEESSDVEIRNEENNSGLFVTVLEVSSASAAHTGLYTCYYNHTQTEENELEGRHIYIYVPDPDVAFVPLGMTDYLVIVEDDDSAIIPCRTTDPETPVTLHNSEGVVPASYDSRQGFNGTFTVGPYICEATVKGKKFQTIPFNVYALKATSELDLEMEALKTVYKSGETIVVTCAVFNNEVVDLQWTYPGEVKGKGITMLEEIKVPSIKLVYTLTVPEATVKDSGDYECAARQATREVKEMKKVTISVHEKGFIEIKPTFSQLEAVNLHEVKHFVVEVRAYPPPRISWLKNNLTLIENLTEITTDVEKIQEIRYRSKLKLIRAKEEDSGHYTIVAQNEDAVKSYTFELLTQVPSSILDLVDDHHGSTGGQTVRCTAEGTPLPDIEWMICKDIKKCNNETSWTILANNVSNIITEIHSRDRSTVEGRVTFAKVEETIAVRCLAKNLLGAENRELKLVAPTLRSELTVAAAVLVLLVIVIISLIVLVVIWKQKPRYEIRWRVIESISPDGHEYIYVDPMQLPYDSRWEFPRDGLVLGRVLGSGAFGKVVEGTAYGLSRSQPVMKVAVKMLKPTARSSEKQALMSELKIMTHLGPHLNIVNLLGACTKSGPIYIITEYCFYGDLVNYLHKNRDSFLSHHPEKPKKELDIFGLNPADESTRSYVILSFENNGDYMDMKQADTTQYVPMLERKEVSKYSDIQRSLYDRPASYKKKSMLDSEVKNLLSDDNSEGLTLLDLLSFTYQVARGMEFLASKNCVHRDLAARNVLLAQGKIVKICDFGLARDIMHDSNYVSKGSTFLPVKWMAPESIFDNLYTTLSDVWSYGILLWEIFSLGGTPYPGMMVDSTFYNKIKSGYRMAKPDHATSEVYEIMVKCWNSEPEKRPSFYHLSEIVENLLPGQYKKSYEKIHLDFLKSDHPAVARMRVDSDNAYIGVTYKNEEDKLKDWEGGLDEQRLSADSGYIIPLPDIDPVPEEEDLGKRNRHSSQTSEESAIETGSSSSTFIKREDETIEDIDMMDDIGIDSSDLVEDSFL
Description: as §4

rat FLT3 = experiment: Cell surface binding to Ba/F3 ratFLT3, flow cytometry; conditions: orthologue panel
Description: as §4

VEGFR-2 = biological target: T5, VEGFR-2 (Homo sapiens, UniProt P35968); experiment: Cell surface binding to Ba/F3 FLT3 homologue VEGFR-2; conditions: homologue panel
T5 construct: expressed in transfected cells; host or cells: Ba/F3 cells stably expressing pMIY construct
T5 sequence (P35968 20-1356, species assumed): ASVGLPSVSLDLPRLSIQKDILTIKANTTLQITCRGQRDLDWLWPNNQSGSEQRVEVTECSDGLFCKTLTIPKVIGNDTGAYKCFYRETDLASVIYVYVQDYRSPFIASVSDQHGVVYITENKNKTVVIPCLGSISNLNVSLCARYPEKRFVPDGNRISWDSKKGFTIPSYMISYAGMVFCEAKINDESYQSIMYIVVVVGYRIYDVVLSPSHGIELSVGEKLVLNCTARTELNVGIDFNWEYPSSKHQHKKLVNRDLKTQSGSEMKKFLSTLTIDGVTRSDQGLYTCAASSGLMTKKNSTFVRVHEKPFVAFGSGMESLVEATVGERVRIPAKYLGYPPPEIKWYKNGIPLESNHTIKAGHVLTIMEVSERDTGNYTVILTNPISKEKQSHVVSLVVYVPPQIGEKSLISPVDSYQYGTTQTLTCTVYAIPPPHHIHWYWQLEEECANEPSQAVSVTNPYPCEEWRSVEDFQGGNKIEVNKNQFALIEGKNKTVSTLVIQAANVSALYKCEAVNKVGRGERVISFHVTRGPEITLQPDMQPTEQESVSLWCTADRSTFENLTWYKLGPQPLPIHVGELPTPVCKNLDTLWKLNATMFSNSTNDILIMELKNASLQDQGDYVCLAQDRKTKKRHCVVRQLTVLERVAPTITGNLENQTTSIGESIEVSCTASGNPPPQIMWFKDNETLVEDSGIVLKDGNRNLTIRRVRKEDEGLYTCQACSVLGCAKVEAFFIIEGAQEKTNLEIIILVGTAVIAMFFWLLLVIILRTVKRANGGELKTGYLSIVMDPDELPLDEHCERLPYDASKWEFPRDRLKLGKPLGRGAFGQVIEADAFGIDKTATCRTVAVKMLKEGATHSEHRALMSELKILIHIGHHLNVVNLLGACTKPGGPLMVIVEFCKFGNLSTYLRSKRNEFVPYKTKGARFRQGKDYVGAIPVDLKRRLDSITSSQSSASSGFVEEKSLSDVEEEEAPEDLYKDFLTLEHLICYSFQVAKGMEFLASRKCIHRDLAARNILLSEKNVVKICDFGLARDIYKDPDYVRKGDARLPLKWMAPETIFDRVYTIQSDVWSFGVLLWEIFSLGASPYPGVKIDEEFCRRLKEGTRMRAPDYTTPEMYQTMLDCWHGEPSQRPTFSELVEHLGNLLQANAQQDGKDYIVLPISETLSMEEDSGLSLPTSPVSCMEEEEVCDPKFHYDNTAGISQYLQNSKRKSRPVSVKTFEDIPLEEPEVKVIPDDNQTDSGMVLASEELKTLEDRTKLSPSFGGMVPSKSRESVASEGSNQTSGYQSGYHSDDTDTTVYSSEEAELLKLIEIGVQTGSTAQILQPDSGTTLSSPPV
Description: as §4

c-KIT = biological target: T6, c-KIT (Homo sapiens, UniProt P10721); experiment: Cell surface binding to Ba/F3 FLT3 homologue c-KIT; conditions: homologue panel
T6 construct: expressed in transfected cells; host or cells: Ba/F3 cells stably expressing pMIY construct
T6 sequence (P10721 26-976): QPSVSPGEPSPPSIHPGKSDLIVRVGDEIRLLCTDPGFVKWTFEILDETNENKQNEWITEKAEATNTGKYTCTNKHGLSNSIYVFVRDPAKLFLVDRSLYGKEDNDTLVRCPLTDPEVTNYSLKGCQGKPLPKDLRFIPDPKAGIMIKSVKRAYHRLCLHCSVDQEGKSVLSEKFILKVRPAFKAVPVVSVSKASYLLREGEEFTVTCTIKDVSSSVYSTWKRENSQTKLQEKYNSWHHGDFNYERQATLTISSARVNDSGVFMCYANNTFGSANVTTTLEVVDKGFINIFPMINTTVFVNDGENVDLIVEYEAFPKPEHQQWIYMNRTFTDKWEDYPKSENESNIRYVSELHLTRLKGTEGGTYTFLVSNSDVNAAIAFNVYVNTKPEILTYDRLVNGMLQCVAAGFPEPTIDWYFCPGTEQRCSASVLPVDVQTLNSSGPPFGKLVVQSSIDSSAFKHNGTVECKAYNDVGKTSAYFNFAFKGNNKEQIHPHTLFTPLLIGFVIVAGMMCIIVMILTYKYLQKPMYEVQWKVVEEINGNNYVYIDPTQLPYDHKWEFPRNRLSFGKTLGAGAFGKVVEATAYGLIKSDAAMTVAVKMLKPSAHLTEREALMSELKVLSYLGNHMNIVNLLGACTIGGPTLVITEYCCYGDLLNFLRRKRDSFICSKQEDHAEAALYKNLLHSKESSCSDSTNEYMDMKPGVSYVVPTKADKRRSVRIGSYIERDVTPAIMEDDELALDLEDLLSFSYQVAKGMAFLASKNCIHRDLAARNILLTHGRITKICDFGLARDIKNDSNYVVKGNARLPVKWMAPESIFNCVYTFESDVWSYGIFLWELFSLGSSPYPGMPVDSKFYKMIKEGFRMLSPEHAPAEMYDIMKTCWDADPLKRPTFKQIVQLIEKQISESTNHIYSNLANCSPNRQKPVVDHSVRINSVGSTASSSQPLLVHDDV
Description: as §4

cynomolgus monkey FLT3 = experiment: Cell surface binding to Ba/F3 cynoFLT3, flow cytometry; conditions: orthologue panel
Description: as §1, §2, §3

B1: #3: humanized clone 3 of 20D9 (VH3 + VK1), lead candidate; heavy chain SEQ ID NO: 83, light chain SEQ ID NO: 88 (antibody)
heavy: QVQLVESGGGVVQPGRSLRLSCAASGFTFNNYWMTWVRQAPGKGLEWIASITKTGGGTYYADSVKGRFTISRDNSKNTLYLQMNSLRAEDTAVYYCTTLQQLGVMDAWGQGTLVTVSS[human IgG1 constant region left out]
light: DIQMTQSPSVLSASVGDRVTINCRASQNINKELNWYQQKLGEAPKLLIYNTNNLQSGVPSRFSGSGSGTDYTLTISSLQPEDVATYFCFQHKSWPLTFGSGTKLEIKRTVAAPSVFIFPPSDEQLKSGTASVVCLLNNFYPREAKVQWKVDNALQSGNSQESVTEQDSKDSTYSLSSTLTLSKADYEKHKVYACEVTHQGLSSPVTKSFNRGEC
modifications: Humanized clone 3 of 20D9, heavy chain sequence without a signalpeptide; Humanized clone 3 of 20D9, light chain sequence without a signalpeptide
Binding to mouse FLT3 (murine FLT3): does not bind
Binding to human FLT3 [1]: exclusively binds to FLT3 from human and cynomolgous monkey
Binding to CSF1R (CSF1R): does not bind
Binding to PDGFRα (PDGFRα): does not bind
Binding to rat FLT3 (rat FLT3): does not bind
Binding to VEGFR-2 (VEGFR-2): does not bind
Binding to c-KIT (c-KIT): does not bind
Binding to cynomolgous monkey FLT3 (cynomolgus monkey FLT3): exclusively binds to FLT3 from human and cynomolgous monkey
